# From PubChem BioAssay AID1508623 (National Center for Advancing Translational Sciences (NCATS), 2021)
# In all, about 48,000 compounds went through this assay and about 450 (0.94%) were called active. This list was built around the results that the source calls inconclusive (neither active nor inactive); the mix of calls is not that of the screen. The call rests on the fitted dose curve; in most records, active means well fitted inhibition curve with a large enough effect; inconclusive means small, poorly fitted or top-dose-only effect; inactive means no such curve, though single readings can be large or run the other way. Potencies beside an inconclusive call are fits to weak or partial responses and may not hold up.
# Assay: Primary qHTS for Identification of Small Molecule Inhibitors of Huntingtin Promoter Activity; further: nearly all actives have a fitted effect of over 50% in size
# Conditions: HEK293 HTT promoter firefly luciferase reporter (activity 0% = vehicle and -100% = no light), 24 h; activity change, negative = inhibition: at 57.5 µM (top of the series)
# How it was run: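 Firefly luciferase signal from promoter-reporter HEK293 cells was scaled between vehicle (0%) and zero RLU (-100%). Compounds were tested at final concentrations of up to 57.5 uM over 24 h at 37 degrees C. PTC124 at 50 uM final served as control inhibitor.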
# Potency means the concentration at half of the fitted maximal effect; tags describe the fitted curve by direction and shape.
SMILES,Potency,"activity change, negative = inhibition"
CCOc1ccc(C(=O)N2CC(=O)Nc3ccc(C)cc3C2c2ccc(F)cc2)cc1OCC (stereo unspecified),"inconclusive: 35.5 µM [inhibitor, partial curve, poor fit]",
CCSc1ccccc1C(=O)N1CCN(c2nc3ccccc3s2)CC1,"inconclusive: 20 µM [inhibitor, partial curve, poor fit]",
COc1cccc(NC(=O)c2oc3ccc(S(=O)(=O)N(C)C4CCCCC4)cc3c2C)c1,"inconclusive: 28.2 µM [inhibitor, partial curve, poor fit]",
CCN(CC)C(=O)c1c(NC(=O)c2ccccc2F)sc2c1CCC(C(C)(C)C)C2 (stereo unspecified),"inconclusive: 20 µM [inhibitor, partial curve, poor fit]",
O=C1CC(c2ccc(Cl)cc2)CC(=O)N1,,inactive: 11.4%
COc1cc(OC)cc(C(=O)Nc2nc(-c3nnn(-c4ccc(C)cc4)c3C)ns2)c1,"inconclusive: 28.2 µM [inhibitor, single point]",
CCOC(=O)C1=C(CN2CCC(C)CC2)NC(=O)NC1c1ccc(OC(C)C)cc1 (stereo unspecified),"inconclusive: 20 µM [inhibitor, single point]",
Cc1ccc(NC(=O)CN2C(=O)C(c3ccccc3)=NC23CCCCC3)cc1C,"inconclusive: 14.1 µM [inhibitor, partial curve, poor fit]",
CCS(=O)(=O)N1CCCc2cc(C(=O)Nc3cc([N+](=O)[O-])ccc3C)ccc21,"inconclusive: 39.8 µM [inhibitor, single point]",
CCc1ccc(S(=O)(=O)c2nnn3c2nc(N(C)Cc2ccccc2)c2cc(Cl)ccc23)cc1,,inactive: -9.76%
COc1ccc(Nc2nc3c(S(=O)(=O)c4ccccc4)nnn3c3ccc(Cl)cc23)cc1,"inconclusive: 2.24 µM [inhibitor, full curve, poor fit]",
Cc1ccc(Cn2c(CO)cnc2SCc2ccc(F)cc2)cc1,"inconclusive: 35.5 µM [inhibitor, partial curve, poor fit]",
Cc1nn(CCC(=O)Nc2ccc(Cl)cc2)c(C)c1S(=O)(=O)N1CCCCC1,"inconclusive: 28.2 µM [inhibitor, partial curve, poor fit]",
CN(C)c1ccc(CNC(=O)C2CCN(c3nnc(-n4cccc4)s3)CC2)cc1,"inconclusive: 28.2 µM [inhibitor, partial curve]",
CCOc1ccc(C(=O)Nc2ccc(-c3cc4ccccc4oc3=O)cc2)cc1Br,"inconclusive: 0.251 µM [inhibitor, full curve, poor fit]",
CCc1cccc(NC(=O)C2CCN(S(=O)(=O)c3ccc(Br)s3)CC2)c1,"inconclusive: 39.8 µM [inhibitor, single point]",
